Laboratory results reported in PubChem BioAssay AID624202 (National Center for Advancing Translational Sciences (NCATS), 2012).
In all, about 380,000 compounds went through this assay and about 4,000 (1.1%) were called active. Inconclusive means that the source gave no clear call. Such entries were picked first, then a sample of the others. Calls follow the shape of the dose curve; as a rule, active = well fitted activation curve with a large enough effect; inconclusive = small, poorly fitted or top-dose-only effect; inactive = no such curve, though single readings can be large or run the other way. Where the call is inconclusive, the potency comes from a doubtful curve fit.

Assay: qHTS Assay to Identify Small Molecule Activators of BRCA1 Expression; also: nearly all actives have a fitted effect of over 80% in size
Conditions: MCF7-BRCA1-FFLuc reporter, luminescence, 48 h; activation: at 46.1 µM (top of the series), scaled: vehicle 0%, 10 µM genistein 100% unless noted
Procedure, shortened: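 Cells: MCF7-BRCA1-FFLuc, 2000/well. Exposure: 48 h, 37 °C, 5% CO2. Read: luminescence, 15 min post-substrate. Controls: genistein 10 microM (maximal activation), DMSO (neutral).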
Tags tell the direction and shape of the fitted curve.

SMILES	Potency	activation
Cc1ccc(NC(=O)c2ccn(C)n2)c(Br)c1	inconclusive: 3.16 µM [activator, partial curve, poor fit]	–
Cc1ccc(NC(=O)COC(=O)CSC(=S)N2CCOCC2)cc1C	inactive	–
COc1ccc(N=C(C)C2=C(O)CSC2=O)cc1	inconclusive: 12.6 µM [activator, single point]	–
CCN1CCN(Cc2ccccc2NC(=O)Nc2ccc(C)cc2)CC1	active: 6.31 µM	–
Cc1ccnc(NC(=O)c2cc3cc(F)ccc3s2)c1	inconclusive: 1.26 µM [activator, full curve, poor fit]	–
COc1ccccc1-c1nnc(NC(=O)CSc2nncn2C)s1	active: 10 µM	–
CC1(C)CC(=O)/C(=N/Nc2ccc(Cl)cc2)CO1	active: 3.55 µM	–
Cc1ccc2c(Cl)c(C(=O)NCC3CCCO3)sc2c1 (stereo not drawn)	inconclusive: 2.24 µM [activator, full curve, poor fit]	–
O=C(Nc1nc2ccsc2c(=O)s1)c1ccc(Cl)cc1	inconclusive: 2.24 µM [activator, full curve, poor fit]	–
CCCCc1nnc(NC(=O)c2cccc(S(=O)(=O)N3CCN(C)CC3)c2)s1	inactive	–
COc1ccc2nc(NC(=O)c3ccc(F)cc3)sc2c1	inconclusive: 2.51 µM [activator, full curve, poor fit]	–
CCCCCCCCC#Cc1nc(C)ccc1OC	inactive	–
COc1cc(OC)c2c(=O)cc(-c3ccccc3)oc2c1	active: 7.94 µM	–
CC(=O)NC(=O)NC1OC(=O)C(Cl)=C1Cl (stereo not drawn)	inactive	–
N#Cc1c(-c2ccccc2)ccnc1Oc1ccccc1	inconclusive: 11.2 µM [activator, partial curve, poor fit]	–
COc1cc(NC(=O)c2cccc(Cl)c2)c(OC)cc1NC(=O)CN1CCCCC1	inactive	–
Clc1ccc(-c2ccc(SCc3ccccn3)nn2)cc1	inconclusive: 4.47 µM [activator, partial curve, poor fit]	–
CS(=O)(=O)c1cnc2c(-c3ccc(F)cc3)cnn2c1N	inconclusive: 1.78 µM [activator, full curve, poor fit]	–
Cc1ccc(NC(=O)OCc2cc(-c3ccccc3)on2)cc1	inconclusive: 35.5 µM [activator, single point]	–
Cc1nc2ccc(C(C(F)(F)F)(C(F)(F)F)C(F)(F)F)cc2[nH]1	inactive	–
COc1ccc2nc(NC(=O)NC3CCCCC3)sc2c1	inconclusive: 8.91 µM [activator, partial curve, poor fit]	–
COc1ccc(/C=C/c2nnc(NC(C)=O)s2)cc1	inconclusive: 1.26 µM [activator, partial curve, poor fit]	–
CC(=O)c1sc(NC(=O)CCOc2ccccc2)nc1C	inconclusive: 8.91 µM [activator, single point]	–
Cc1cc(C(=O)Nc2ccc3[nH]ccc3c2)no1	active: 6.31 µM	–
Nc1nnc(SCCCC(=O)c2ccccc2)s1	inconclusive: 35.5 µM [activator, single point]	–

SMILES	Potency	activation
N#C/C(=C\c1ccc(-c2ccccc2[N+](=O)[O-])o1)C(=O)Nc1nc(-c2cccs2)cs1	inactive	–
CCCOc1ccc(F)cc1-c1cc(C(=O)Nc2ccccc2)[nH]n1	inconclusive: 31.6 µM [activator, single point]	–
N/C(=N\OC(=O)c1ccc2c(c1)OCO2)c1ccc([N+](=O)[O-])cc1	inconclusive: 3.16 µM [activator, full curve, poor fit]	–
Cc1cccc(OCc2cc(-c3ccccc3)no2)c1C	inconclusive: 12.6 µM [activator, partial curve, poor fit]	–
CCOC(=O)N1CCN(C(=O)c2noc3c2COc2ccccc2-3)CC1	inconclusive: 5.01 µM [activator, full curve, poor fit]	–
c1ccc(CSc2nnc(-c3ccco3)n2Cc2ccco2)cc1	inconclusive: 10 µM [activator, partial curve, poor fit]	–
COc1ccc2c(c1)CCc1c(C(=O)N3CCCCCC3)noc1-2	inconclusive: 2.82 µM [activator, partial curve, poor fit]	–
Cc1c(C(=O)OCC(=O)N2C(C)CCCC2C)oc2ccccc12 (stereo not drawn)	inconclusive: 6.31 µM [activator, partial curve, poor fit]	–
CC(C)COc1ccc(C(=O)NC(Cc2c[nH]c3ccccc23)C(=O)NN)cc1 (stereo not drawn)	inactive	–
CCOC(=S)SCc1cn2cccc(C)c2n1	inactive	–
O=C1/C(=C/c2cccs2)Cc2ccccc21	inconclusive: 22.4 µM [activator, single point]	–
COc1cccc(NC(=O)C(=O)NCCc2sc(-c3cccc(C)c3)nc2C)c1	inconclusive: 35.5 µM [activator, single point]	–
COc1c(CC=C(C)C)cc(C2CC(=O)c3c(O)cc(O)cc3O2)cc1CC=C(C)C (stereo not drawn)	inactive	–
O=C(Nc1cccc(Cl)c1)Nc1nnc([C@@H]2C[C@H](O)[C@@H](CO)O2)s1	inconclusive: 11.2 µM [activator, partial curve, poor fit]	–
COc1ccc2nc(Nc3nc(C)c(C(C)=O)s3)sc2c1	inconclusive: 1 µM [activator, full curve, poor fit]	–
COc1cccc(C(=O)N=c2sc3cc(S(C)(=O)=O)ccc3n2C)c1	active: 6.31 µM	–
COc1ccc2nc(Cl)c(/C=N/Nc3ccccn3)cc2c1	active: 3.16 µM	–
CCn1c(Cl)c(C=O)s/c1=N\S(=O)(=O)c1ccccc1	inactive	–
Fc1ccccc1CSc1nnc(-c2cccs2)o1	active: 3.98 µM	–
Cc1cccc(NC(=O)Nc2ccc(C)cc2Br)c1	inconclusive: 7.08 µM [activator, full curve, poor fit]	–
CC(=O)c1cc2c(C)c(C(=O)c3ccccc3)oc2cc1O	inconclusive: 1.78 µM [activator, partial curve, poor fit]	–
Cc1ccc(-c2cc(C(=O)NCC3CCCO3)no2)cc1 (stereo not drawn)	inconclusive: 1.58 µM [activator, full curve, poor fit]	–
COc1ccc(/C=N\NC(=O)C2=NNC(=O)C2C)cc1 (stereo not drawn)	active: 2.82 µM	–
Cc1cccc(N=Nc2c(C)c(C#N)c(O)[nH]c2=O)c1	inactive	–
CC(C)c1ccc(NC(=O)C(c2ccc3c(c2)OCO3)N2CCC3(CC2)OCCO3)cc1 (stereo not drawn)	inactive	–

SMILES	Potency	activation
Cc1ccc(-c2nc(Nc3ccccc3)n[nH]2)cc1	inconclusive: 1.12 µM [activator, full curve, poor fit]	–
COc1ccc(Nc2ccncc2[N+](=O)[O-])cc1	inactive	–
COc1ccc2oc(C(=O)NC3CCCCC3)c(C)c2c1	inconclusive: 2.24 µM [activator, full curve, poor fit]	–
O=C(Nc1cccc(Cl)c1)C1CCCN(c2cnccn2)C1 (stereo not drawn)	inconclusive: 31.6 µM [activator, single point]	–
Cc1cccc(-c2nc(N)nc(N)n2)c1	inconclusive: 10 µM [activator, partial curve, poor fit]	–
CC(=O)Nc1cccc(-c2cn3ccc(C)cc3n2)c1	inconclusive: 1.78 µM [activator, full curve, poor fit]	–
CCOC(=O)c1cc2cc3ccccc3cc2[nH]1	inconclusive: 3.55 µM [activator, full curve, poor fit]	–
COC(=O)c1ccc(COc2ccccc2/C=N/Nc2cccc(C(=O)O)c2)cc1	inconclusive: 12.6 µM [activator, partial curve, poor fit]	–
COc1ccc([C@@]23Oc4cc(OC)cc(OC)c4[C@]2(O)[C@H](O)[C@H](C(=O)N(C)C)[C@H]3c2ccccc2)cc1	–	inconclusive: -103% [activator]
NC(=O)CSc1nc(C2CC2)nc2sc3c(c12)CCCC3	inconclusive: 2.51 µM [activator, full curve, poor fit]	–
CN1CCN(CCC(=O)Nc2ccc(OCc3ccccc3)cc2)CC1	active: 11.2 µM	–
Nn1c(SCc2ccccc2)nc2c(cnn2-c2ccccc2)c1=O	active: 3.16 µM	–
O=C(Nc1ccc2c(c1)CCC2)Nc1ccccc1F	–	inconclusive: 99.6% [activator]
O=C(CNC(=O)c1cccs1)c1ccc(Cl)cc1	inconclusive: 1.26 µM [activator, full curve, poor fit]	–
COc1ccc(NC(=O)c2cnn(-c3ccccc3)c2C)cc1	–	inconclusive: 64.9% [activator]
Clc1c(-c2ccccc2)nnn1-c1ccccc1	inconclusive: 14.1 µM [activator, partial curve, poor fit]	–
Clc1ccc(Sc2cnc3ccccc3n2)cc1	inconclusive: 11.2 µM [activator, partial curve, poor fit]	–
O=S(=O)(O)c1ccc(O)c2cc(Nc3ccccc3)ccc12	inactive	–
O=C(CSc1ccccc1)Nc1ccc(N2CCOCC2)cc1	inconclusive: 17.8 µM [activator, single point]	–
CCCn1nnc(NC(=O)c2sc3ccccc3c2Cl)n1	inconclusive: 2.51 µM [activator, full curve, poor fit]	–
COc1ccc(-n2cnc3sc(-c4ccccc4)cc3c2=O)cc1	inconclusive: 1.78 µM [activator, full curve, poor fit]	–
CC(=O)Nc1sc(N/N=C/c2ccc(O)cc2)nc1-c1ccc(C)cc1	inconclusive: 15.8 µM [activator, single point]	–
N/C(=N\OC(=O)Cc1ccccc1)c1ccccc1Cl	active: 14.1 µM	–
